Where “and” joins values, the source holds several entries; their conditions need not be identical. Equal entries are not always repeated. Structures can show the parent of a compound that is named as a salt. ± gives the standard deviation of the averaged measurements. Whole data set: some 3,200 compounds, median “nuclei count (viability) relative to DMSO” near 99, cut for the lowest 2% near 16. The list shows a part of the results.

This experiment relates to U2OS. The experiment is described as follows: nuclei count (viability) relative to DMSO (% of DMSO); higher = more viable cells. The note with it: 10 µM; 24 h. The procedure: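 Primary image-based screen in U2OS cells: compounds at 10 uM for 24 h, then a 1 h o-propargyl-puromycin (OPP) pulse, click labelling, and high-throughput microscopy. Mean cytoplasmic OPP intensity and nuclei count were normalised to DMSO wells within each plate (DMSO = 100) and averaged over triplicate plates.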
`Clc1ccc(-c2nc3sccn3c2/C=N/OCc2ccc(Cl)c(Cl)c2)cc1` came in with a nuclei count of 98.1 ± 4.4. Turning to `O=C1C(Cl)=C(NCCN2CCOCC2)C(=O)c2ncccc21`, the nuclei count is 5.89. For the compound `CCOc1nc2cccc(C(=O)OC(C)OC(=O)OC3CCCCC3)c2n1Cc1ccc(-c2ccccc2-c2nn[nH]n2)cc1` (stereo not given) [Candesartan cilexetil (Atacand)], the nuclei count turned out to be 100. To `COc1ccc(-c2cc3c(C)nc(N)nc3n([C@H]3CC[C@H](OCCO)CC3)c2=O)cn1` belongs 52.2; to `Cn1c(=O)c(F)c(Nc2ccc(I)cc2F)c2c(=O)n(C[C@@H](O)CO)cnc21`, 82.9; to `CC[C@]12CCCN3CCc4c(n(c5ccccc45)[C@@](O)(C(=O)OC)C1)[C@@H]32` [Vincamine], 97.5. Regarding `CSc1ccc(/C=C2/C(C)=C(CC(=O)O)c3cc(F)ccc32)cc1` [Sulindac Sulfide], the nuclei count was 99. With `CCC(C)(C)c1ccc(CC(C)CN2C[C@@H](C)O[C@@H](C)C2)cc1` (stereo not given in full) [Amorolfine HCl], the nuclei count stood at 84.5.

In turn, `CCOC(=O)c1ccc(C#Cc2ccc3c(c2)C(C)(C)CCS3)nc1` [Tazarotene (Avage)] gave a nuclei count of 107. To `CC(C)(C)C#Cc1cc(N(C(=O)[C@H]2CC[C@H](C)CC2)[C@H]2CC[C@H](O)CC2)c(C(=O)O)s1` belongs 104; to `CC(C)N(CCC(=O)c1ccc2ccccc2c1)Cc1ccccc1`, 93.5 and 97.8. For `O=C(O)c1cc(=O)c2c(OCC(O)COc3cccc4oc(C(=O)O)cc(=O)c34)cccc2o1` [Cromolyn disodium salt] the value was 100; for `CS(=O)(=O)c1ccc(Cn2c3c(c4cc(F)cc(F)c42)CCCC3CC(=O)O)cc1` (stereo not given), 108; for `Cc1c(CC(C)(C)C(=O)O)n(Cc2ccc(Cl)cc2)c2ccc(F)cc12`, 102.

The compound `C/N=C(/NC#N)NCCSCc1csc(NC(=N)N)n1` [Tiotidine] had a nuclei count of 108. On to `CCN1/C(=C/C(C)=O)Sc2ccc(OC)cc21`, for which the nuclei count worked out at 106. As to `CC(=O)OC(C)C[N+](C)(C)C` (stereo not given) [Methacholine chloride], the nuclei count was found to be 107. To `CCCCOc1ccc(CC(=O)NO)cc1` [Bufexamac] belongs 95.9. Consider `C=CCc1ccccc1OCC(O)CNC(C)C` (stereo not given) [Alprenolol hydrochloride], for which the nuclei count worked out at 109. For `NC[C@H]1CC[C@H](C(=O)O)CC1` [Tranexamic acid] the value was 95; for `Cc1ccc(O)c([C@H](CCN(C(C)C)C(C)C)c2ccccc2)c1` [Tolterodine tartrate (Detrol LA)], 102.

Compound `CCCCC[C@H](CC(=O)NO)C(=O)N[C@H](C(=O)N1CCC[C@H]1CO)C(C)C` [Actinonin] registered a nuclei count of 95.2.

As for `Cc1cccc(Nc2nc(-c3ccncc3)cs2)c1`, the nuclei count came to 85.3. For `CN(C)CCC(c1ccccc1)c1ccccn1` (stereo not given) [Pheniramine maleate] the value was 103; for `O=[N+]([O-])c1cc(Cl)ccc1S(=O)(=O)N1CCN(Cc2ccccc2)CC1`, 117; for `CCCCc1nn(-c2ccccc2C(F)(F)F)c(=O)n1Cc1ccc(-c2ccccc2S(=O)(=O)NC(=O)c2sccc2C)cc1`, 101. For `CCSc1ccc2c(c1)N(CCCN1CCN(C)CC1)c1ccccc1S2` [Thiethylperazine dimalate] the value was 94.6; for `CSCCC(C=O)NC(=O)C(CC(C)C)NC(=O)[C@H](CC(C)C)NC(C)=O` (stereo not given in full) [Calpain Inhibitor II (ALLM)], 102; for `O=c1cc(CN2CCOCC2)occ1OCCCCCSc1ccnc2cc(C(F)(F)F)ccc12`, 102.

The compound `CCCCCCCCCC(=O)N[C@@H](CCCN=C(N)N)C(=O)N[C@H](C(=O)N[C@@H](CCCCN)C(=O)N[C@@H](CCCN=C(N)N)C(=O)CCl)C(C)C` displayed a nuclei count of 99.8.

As for `CCOc1ccc(Cc2cc([C@@H]3O[C@H](CO)[C@@H](O)[C@H](O)[C@H]3O)ccc2Cl)cc1` [Dapagliflozin], the nuclei count turned out to be 106.

As for `CN(C)CCN1C(=O)c2cccc3cc(N)cc(c23)C1=O` [Amonafide], the nuclei count was found to be 41.9. In turn, `CCN(CC)CCNC(=O)c1c(C)[nH]c(/C=C2\C(=O)Nc3ccc(Cl)cc32)c1C` yielded a nuclei count of 79.9.

`CCN(CCCc1ccccc1)CCCc1ccccc1` [Alverine citrate salt] had a nuclei count of 88.8. As for `COc1cc2c(cc1OC)CN(CCc1ccc(NC(=O)c3cccc4c(=O)c5cccc(OC)c5[nH]c34)cc1)CC2` [Elacridar], the nuclei count was 108. For the compound `CCn1c(-c2nonc2N)nc2cnc(Oc3cccc(NC(=O)c4ccc(OCCN5CCOCC5)cc4)c3)cc21`, the nuclei count was 77.5. To `CC[C@]1(O)C[C@@H]2CN(CCc3c([nH]c4ccccc34)[C@@](C(=O)OC)(c3cc4c(cc3OC)N(C)[C@H]3[C@@](O)(C(=O)OC)[C@H](OC(C)=O)[C@]5(CC)C=CCN6CC[C@]43[C@@H]65)C2)C1` [Vinblastine] belongs 100.

In turn, `CC[C@]1(O)C[C@@H]2CN(CCc3c([nH]c4ccccc34)[C@@](C(=O)OC)(c3cc4c(cc3OC)N(C)[C@H]3[C@@](O)(C(=O)OC)[C@H](OC(C)=O)[C@]5(CC)C=CCN6CC[C@]43[C@@H]65)C2)C1` [Vinblastine sulfate] came in with a nuclei count of 16.8. To `Nc1cc(N2CCCCC2)nc(N)[n+]1OS(=O)(=O)[O-]` [Minoxidil sulfate] belongs 88.6. Consider `Cc1cc(CS(=O)(=O)c2ccccc2)cc(OCc2ccc(CN3CCC[C@@H]3CO)cc2)c1`, for which the nuclei count came out at 97. To `CCCCC#Cc1nc(NC)c2ncn([C@@H]3O[C@H](CO)[C@@H](O)[C@H]3O)c2n1` belongs 96.4; to `Cn1cnc(N)c2ncnc1-2` [3-Methyladenine (3-MA)], 107; to `Cn1cnc(N)c2ncnc1-2` [3-Methyladenine], 104. To `CCN(CC)C(=O)N1CCN(C)CC1` [Diethylcarbamazine citrate] belongs 113; to `O=C(O)c1cc(O)c(O)c(O)c1` [Gallic acid], 103. For `O=P(O)(O)C(O)(Cc1cccnc1)P(=O)(O)O` [Risedronic acid (Actonel)] the value was 104. For the compound `O=P(O)(O)C(O)(Cc1cccnc1)P(=O)(O)O` [Risedronate sodium], the nuclei count came out at 95.1. To `O=S(=O)(O)CCSSCCS(=O)(=O)O` [Dimesna] belongs 103; to `CO[C@H]1C(=O)[C@]2(C)[C@@H](OC)C[C@H]3OC[C@@]3(OC(C)=O)[C@H]2[C@H](OC(=O)c2ccccc2)[C@]2(O)C[C@H](OC(=O)[C@H](O)[C@@H](NC(=O)OC(C)(C)C)c3ccccc3)C(C)=C1C2(C)C` [Cabazitaxel (Jevtana)], 47.7; to `CCCC(C(=O)OCCN(CC)CC)(c1ccccc1)c1ccccc1` [Proadifen hydrochloride], 112. For `C=CC[N@@+]12CC[C@@]34c5ccccc5N5/C=C6/[C@H]7C[C@H]8[C@@]9(CC[N@@+]8(CC=C)C/C7=C/CO)c7ccccc7N(/C=C(/[C@@H](C[C@@H]31)/C(=C\CO)C2)[C@H]54)[C@@H]69` [Alcuronium chloride] the value was 101; for `C[C@H](CCC(=O)NCC(=O)O)[C@H]1CC[C@H]2[C@@H]3[C@H](O)C[C@@H]4C[C@H](O)CC[C@]4(C)[C@H]3C[C@H](O)[C@]12C` [Glycocholic acid], 106; for `Clc1ccc(COC(Cn2ccnc2)c2ccc(Cl)cc2Cl)cc1` (stereo not given) [Econazole nitrate], 102. Turning to `Clc1ccccc1C(c1ccccc1)(c1ccccc1)n1ccnc1` [Clotrimazole], the nuclei count came to 97.6.

As to `CC[C@H](Nc1ncnc2[nH]cnc12)c1nc2cccc(F)c2c(=O)n1-c1ccccc1`, the nuclei count is 100. Turning to `CCOC(=O)C1=CN(Cc2ccccc2)C=C(C(=O)OCC)C1c1ccccc1`, the nuclei count was determined as 80.1. For `O=C(NC1CCNCC1)c1n[nH]cc1NC(=O)c1c(Cl)cccc1Cl` the value was 41.2. As to `CC(C)c1noc(N2CCC(COc3ccc(-c4ccc(S(C)(=O)=O)cc4)nc3)CC2)n1`, the nuclei count was 109.

Compound `Cc1onc(-c2ccccc2)c1C(=O)N[C@@H]1C(=O)N2[C@@H]1SC(C)(C)[C@@H]2C(=O)O` [Oxacillin sodium] displayed a nuclei count of 95.7. Regarding `Cc1onc(-c2ccccc2)c1C(=O)N[C@@H]1C(=O)N2[C@@H]1SC(C)(C)[C@@H]2C(=O)O` [Oxacillin sodium monohydrate], the nuclei count stood at 86.8.

On to `CN(C)[C@@H](CCOc1cccc2ccccc12)c1ccccc1` [Dapoxetine HCl (Priligy)], for which the nuclei count was determined as 105. `CCCC(CCC)C(=O)O` [Valproic acid] displayed a nuclei count of 104 ± 1.1. For `CCCC(CCC)C(=O)O` [Sodium valproate] the value was 105; for `CCCC(CCC)C(=O)O` [Sodium Valproate], 108; for `CN(C)CCCC1(c2ccc(F)cc2)OCc2cc(C#N)ccc21` (stereo not given) [Citalopram Hydrobromide], 97.5.

As for `CN(C)CCCC1(c2ccc(F)cc2)OCc2cc(C#N)ccc21` (stereo not given) [Citalopram hydrobromide], the nuclei count was found to be 96.7. For `COc1cc(N)c(Cl)cc1C(=O)NC1CCN(CCCOc2ccc(F)cc2)CC1OC` (stereo not given) [Cisapride] the value was 107; for `CN(C)CCC(c1ccc(Cl)cc1)c1ccccn1` (stereo not given) [Chlorpheniramine maleate], 87.7. To `CCN(CC)CCCCC1CCN(CC(=O)N2c3ccccc3C(=O)Nc3cccnc32)CC1` belongs 102. As to `COc1ccccc1N1CCN(CCN2C(=O)CC3(CCCC3)CC2=O)CC1` [BMY 7378 dihydrochloride], the nuclei count was 99.8. For `O[C@@H](COc1cccc2ncccc12)CN1CCN(C2c3ccccc3[C@@H]3[C@H](c4ccccc42)C3(F)F)CC1` (stereo not given in full) the value was 97.9; for `O=S(=O)(NCCNC/C=C/c1ccc(Br)cc1)c1cccc2cnccc12`, 84.6; for `O=S(=O)(NCCNC/C=C/c1ccc(Br)cc1)c1cccc2cnccc12` [H 89 dihydrochloride], 98.2. With `C[C@H](NC(=O)/C(C#N)=C/c1ccc(O)c(O)c1)c1ccccc1` [Tyrphostin B44, (+) enantiomer], the nuclei count turned out to be 93.4. For `COc1ccc(-c2coc3cc(O)cc(O)c3c2=O)cc1` [Biochanin A (4-Methylgenistein)] the value was 89.8.

The record behind these values is the supplement of paper PMC8183993.
